Measured values reported in PubChem BioAssay (NCI).
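Where inhibition never reached the appropriate level, the endpoint shown equals the highest concentration tested. Otherwise, values were interpolated linearly from a five-concentration, 48-hour dose response in 96-well plates. TGI denotes the concentration required for complete inhibition of growth.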

Columns and labels:
Assay in all cases: DTP human tumour cell line panel, 48 h
CCRF-CEM leukemia = tested on: CCRF-CEM leukemia
TK-10 renal = tested on: TK-10 renal
SN12C renal = tested on: SN12C renal
EKVX NSCLC = tested on: EKVX NSCLC
HL-60(TB) leukemia = tested on: HL-60(TB) leukemia
ACHN renal = tested on: ACHN renal
RPMI-8226 leukemia = tested on: RPMI-8226 leukemia
OVCAR-8 ovarian = tested on: OVCAR-8 ovarian
SW-620 colon = tested on: SW-620 colon
UACC-257 melanoma = tested on: UACC-257 melanoma
BT-549 breast = tested on: BT-549 breast
PC-3 prostate = tested on: PC-3 prostate
NCI-H460 lung = tested on: NCI-H460 lung
MDA-N = tested on: MDA-N
UACC-62 melanoma = tested on: UACC-62 melanoma
HS 578T breast = tested on: HS 578T breast
OVCAR-5 ovarian = tested on: OVCAR-5 ovarian
NCI-H522 lung = tested on: NCI-H522 lung
SK-MEL-5 melanoma = tested on: SK-MEL-5 melanoma
SR leukemia = tested on: SR leukemia
OVCAR-4 ovarian = tested on: OVCAR-4 ovarian
U251 CNS = tested on: U251 CNS
KM12 colon = tested on: KM12 colon
SK-MEL-2 melanoma = tested on: SK-MEL-2 melanoma
M14 melanoma = tested on: M14 melanoma
LOX IMVI melanoma = tested on: LOX IMVI melanoma
786-0 renal = tested on: 786-0 renal
NCI/ADR-RES ovarian = tested on: NCI/ADR-RES ovarian
SK-OV-3 ovarian = tested on: SK-OV-3 ovarian
NCI-H23 lung = tested on: NCI-H23 lung
K-562 leukemia = tested on: K-562 leukemia
UO-31 renal = tested on: UO-31 renal
CAKI-1 renal = tested on: CAKI-1 renal
T-47D breast = tested on: T-47D breast
MOLT-4 leukemia = tested on: MOLT-4 leukemia
A549 NSCLC = tested on: A549 NSCLC
HCT-116 colon = tested on: HCT-116 colon
A498 renal = tested on: A498 renal
RXF 393 renal = tested on: RXF 393 renal
MDA-MB-231 breast = tested on: MDA-MB-231 breast
DU-145 prostate = tested on: DU-145 prostate
MCF7 breast = tested on: MCF7 breast
SF-295 CNS = tested on: SF-295 CNS
SF-539 CNS = tested on: SF-539 CNS
SNB-75 CNS = tested on: SNB-75 CNS
OVCAR-3 ovarian = tested on: OVCAR-3 ovarian
MDA-MB-435 = tested on: MDA-MB-435
HOP-62 NSCLC = tested on: HOP-62 NSCLC
IGROV1 ovarian = tested on: IGROV1 ovarian
NCI-H226 lung = tested on: NCI-H226 lung
HCT-15 colon = tested on: HCT-15 colon
SF-268 CNS = tested on: SF-268 CNS
SNB-19 CNS = tested on: SNB-19 CNS
MALME-3M melanoma = tested on: MALME-3M melanoma
SK-MEL-28 melanoma = tested on: SK-MEL-28 melanoma
HT29 colon = tested on: HT29 colon

**Q.** For `COc1cc2c(cc1OC)-c1[nH]c3ccc(C(F)(F)F)cc3c1CC(=O)N2`, which TGI (CCRF-CEM leukemia) is on record?
**A.** The TGI was > 100 µM.

**Q.** What about the TGI (TK-10 renal) of the same compound?
**A.** The TGI was > 100 µM.

**Q.** What about the TGI (SN12C renal) of the same compound?
**A.** The TGI was > 100 µM.

**Q.** What about the TGI (EKVX NSCLC) of the same compound?
**A.** The TGI was > 100 µM.

**Q.** What about the TGI (HL-60(TB) leukemia) of the same compound?
**A.** The TGI was 96.7 µM.

**Q.** What about the TGI (ACHN renal) of the same compound?
**A.** The TGI was > 100 µM.

**Q.** What about the TGI (RPMI-8226 leukemia) of the same compound?
**A.** Its TGI is 6.28 µM.

**Q.** What about the TGI (OVCAR-8 ovarian) of the same compound?
**A.** The TGI was > 100 µM.

**Q.** And the TGI (SW-620 colon)?
**A.** Its TGI is > 100 µM.

**Q.** And the TGI (UACC-257 melanoma)?
**A.** The TGI was > 100 µM.

**Q.** And the TGI (BT-549 breast)?
**A.** The TGI was > 100 µM.

**Q.** And the TGI (PC-3 prostate)?
**A.** Its TGI is > 100 µM.

**Q.** And the TGI (NCI-H460 lung)?
**A.** The TGI was > 100 µM.

**Q.** What about the TGI (MDA-N) of the same compound?
**A.** Its TGI is > 100 µM.

**Q.** What about the TGI (UACC-62 melanoma) of the same compound?
**A.** Its TGI is > 100 µM.

**Q.** And the TGI (HS 578T breast)?
**A.** The TGI was > 100 µM.

**Q.** What about the TGI (OVCAR-5 ovarian) of the same compound?
**A.** Its TGI is > 100 µM.

**Q.** What about the TGI (NCI-H522 lung) of the same compound?
**A.** Its TGI is > 100 µM.

**Q.** And the TGI (SK-MEL-5 melanoma)?
**A.** Its TGI is > 100 µM.

**Q.** What about the TGI (SR leukemia) of the same compound?
**A.** The TGI was 6.2 µM.

**Q.** What about the TGI (OVCAR-4 ovarian) of the same compound?
**A.** Its TGI is > 100 µM.

**Q.** And the TGI (U251 CNS)?
**A.** Its TGI is > 100 µM.

**Q.** What about the TGI (KM12 colon) of the same compound?
**A.** The TGI was > 100 µM.

**Q.** And the TGI (SK-MEL-2 melanoma)?
**A.** The TGI was > 100 µM.

**Q.** What about the TGI (M14 melanoma) of the same compound?
**A.** Its TGI is > 100 µM.

**Q.** What about the TGI (LOX IMVI melanoma) of the same compound?
**A.** The TGI was > 100 µM.

**Q.** And the TGI (786-0 renal)?
**A.** The TGI was 20.2 µM.

**Q.** What about the TGI (NCI/ADR-RES ovarian) of the same compound?
**A.** Its TGI is > 100 µM.

**Q.** What about the TGI (SK-OV-3 ovarian) of the same compound?
**A.** The TGI was > 100 µM.

**Q.** And the TGI (NCI-H23 lung)?
**A.** Its TGI is > 100 µM.

**Q.** And the TGI (K-562 leukemia)?
**A.** The TGI was > 100 µM.

**Q.** And the TGI (UO-31 renal)?
**A.** Its TGI is > 100 µM.

**Q.** And the TGI (CAKI-1 renal)?
**A.** Its TGI is > 100 µM.

**Q.** And the TGI (T-47D breast)?
**A.** Its TGI is > 100 µM.

**Q.** What about the TGI (MOLT-4 leukemia) of the same compound?
**A.** The TGI was 6.19 µM.

**Q.** What about the TGI (A549 NSCLC) of the same compound?
**A.** The TGI was 26.1 µM.

**Q.** What about the TGI (HCT-116 colon) of the same compound?
**A.** The TGI was 3.12 µM.

**Q.** What about the TGI (A498 renal) of the same compound?
**A.** Its TGI is 27.7 µM.

**Q.** What about the TGI (RXF 393 renal) of the same compound?
**A.** The TGI was 4.01 µM.

**Q.** And the TGI (MDA-MB-231 breast)?
**A.** The TGI was > 100 µM.

**Q.** And the TGI (DU-145 prostate)?
**A.** Its TGI is > 100 µM.

**Q.** And the TGI (MCF7 breast)?
**A.** The TGI was > 100 µM.

**Q.** What about the TGI (SF-295 CNS) of the same compound?
**A.** Its TGI is > 100 µM.

**Q.** And the TGI (SF-539 CNS)?
**A.** Its TGI is > 100 µM.

**Q.** And the TGI (SNB-75 CNS)?
**A.** The TGI was > 100 µM.

**Q.** What about the TGI (OVCAR-3 ovarian) of the same compound?
**A.** The TGI was 6.4 µM.

**Q.** What about the TGI (MDA-MB-435) of the same compound?
**A.** Its TGI is > 100 µM.

**Q.** What about the TGI (HOP-62 NSCLC) of the same compound?
**A.** Its TGI is > 100 µM.

**Q.** And the TGI (IGROV1 ovarian)?
**A.** Its TGI is > 100 µM.

**Q.** And the TGI (NCI-H226 lung)?
**A.** The TGI was 8.7 µM.

**Q.** And the TGI (HCT-15 colon)?
**A.** The TGI was > 100 µM.

**Q.** And the TGI (SF-268 CNS)?
**A.** Its TGI is > 100 µM.

**Q.** And the TGI (SNB-19 CNS)?
**A.** The TGI was > 100 µM.

**Q.** What about the TGI (MALME-3M melanoma) of the same compound?
**A.** The TGI was > 100 µM.

**Q.** What about the TGI (SK-MEL-28 melanoma) of the same compound?
**A.** Its TGI is > 100 µM.

**Q.** What about the TGI (HT29 colon) of the same compound?
**A.** Its TGI is > 100 µM.
